{"source": "patent US20230301999A1", "about": "“METHODS OF TREATING GOUT” (Horizon Therapeutics USA, Inc., priority 2020, published 2023)", "tested_on": "adult patients with uncontrolled gout", "assay": "Open-label study of pegloticase with MTX: serum uric acid observed values and change from baseline", "format": "in vivo, human", "text": "KXX treatment typically is monitored using regular determination of the patient's SUA levels. A reduction in the serum uric acid level relative to the SUA in the patient before KXX treatment may generally be indicative of successful treatment with KXX, alone, or co-administered with an immunosuppressive agent or therapy, such as MTX, as described herein. Collection and measurement of a patient's serum uric acid levels are known to those of skill in the art. In some embodiments, the patient's serum uric acid levels are assayed before each KXX therapy. In some embodiments, any suitable method for collecting appropriate samples and methods of measuring or quantifying uric acid levels may be used in accordance with the disclosure.\nCriteria for Evaluation: Efficacy was assessed by SUA levels, tender and swollen joint counts, patient and physician global assessments of gout, joint pain, and DECT.\nPatients were administered oral MTX (15 mg/week) and folate (1 mg/day) 4 weeks prior to the first pegloticase infusion (Day 1) and throughout the pegloticase treatment period. Blood was drawn prior to each infusion to measure sUA level, monitor clinical parameters, and examine for ADA development. All patients followed typical IR prophylaxis protocols (fexofenadine one day before and the morning of each infusion and acetaminophen and IV corticosteroid the morning of each infusion). […] The primary study outcome was the proportion of responders, defined as sUA<6 mg/dL for at least 80% of the time during month 6 (weeks 20, 22, and 24). All analyses were performed on a modified intent-to-treat population, defined as patients who received ≥1 pegloticase infusion.", "key": {"[1]": {"settings": "End of Pegloticase Infusions Visit"}, "[2]": {"settings": "Month 6 sUA non-responders, Week 1, n=2"}, "[3]": {"settings": "Month 6 sUA non-responders, Week 2 - Post-Infusion, n=3"}, "[4]": {"settings": "Month 6 sUA non-responders, Week 4 - Post-Infusion, n=2"}, "[5]": {"settings": "Month 6 sUA non-responders, Week 6 - Post-Infusion, n=1"}, "[6]": {"settings": "Month 6 sUA non-responders, Week 8 - Post-Infusion, n=1"}, "[7]": {"settings": "Month 6 sUA non-responders, Week 8 - Pre-Infusion, n=1"}, "[8]": {"settings": "Month 6 sUA responders, Day 1 - Post-Infusion, n=8"}, "[9]": {"settings": "Month 6 sUA responders, End of Pegloticase Infusions Visit, n=2"}, "[10]": {"settings": "Month 6 sUA responders, Week 1, n=4"}, "[11]": {"settings": "Month 6 sUA responders, Week 2 - Post-Infusion, n=11"}, "[12]": {"settings": "Month 6 sUA responders, Week 2 - Pre-Infusion, n=11"}, "[13]": {"settings": "Month 6 sUA responders, Week 4 - Post-Infusion, n=11"}, "[14]": {"settings": "Month 6 sUA responders, Week 4 - Pre-Infusion, n=11"}, "[15]": {"settings": "Month 6 sUA responders, Week 6 - Post-Infusion, n=11"}, "[16]": {"settings": "Month 6 sUA responders, Week 6 - Pre-Infusion, n=11"}, "[17]": {"settings": "Month 6 sUA responders, Week 7, n=4"}, "[18]": {"settings": "Month 6 sUA responders, Week 8 - Post-Infusion, n=11"}, "[19]": {"settings": "Month 6 sUA responders, Week 10 - Post-Infusion, n=11"}, "[20]": {"settings": "Month 6 sUA responders, Week 10 - Pre-Infusion, n=11"}, "[21]": {"settings": "Month 6 sUA responders, Week 12 - Post-Infusion, n=10"}, "[22]": {"settings": "Month 6 sUA responders, Week 12 - Pre-Infusion, n=11"}}}
{"substance": "pegloticase", "values": [{"measurement": "sUA < 6 mg/dL, %", "setting": "Day 1 - Post-Infusion", "result": "(100%)"}, {"measurement": "sUA Change from Baseline, Mean", "setting": "Day 1 - Post-Infusion", "result": -7.29, "unit": "mg/dL"}, {"measurement": "sUA observed, mean", "setting": "Day 1 - Post-Infusion", "result": 1.18, "unit": "mg/dL"}, {"measurement": "sUA observed, median", "setting": "Day 1 - Post-Infusion", "result": 0.30, "unit": "mg/dL"}, {"measurement": "sUA change from baseline, median", "setting": "Early Termination Visit", "result": -0.20, "unit": "mg/dL"}, {"measurement": "sUA < 6 mg/dL, %", "setting": "[1]", "result": "(100%)"}, {"measurement": "sUA observed, mean", "setting": "[1]", "result": 0.30, "unit": "mg/dL"}, {"measurement": "sUA observed, median", "setting": "[1]", "result": 0.30, "unit": "mg/dL"}, {"measurement": "sUA < 6 mg/dL, %", "setting": "Month 6 sUA non-responders, Day 1 - Post-Infusion, n=3", "result": "(100%)"}, {"measurement": "sUA change from baseline, median", "setting": "Month 6 sUA non-responders, Early Termination Visit, n=3", "result": -0.20, "unit": "mg/dL"}, {"measurement": "sUA < 6 mg/dL, %", "setting": "[2]", "result": "(100%)"}, {"measurement": "sUA observed, mean", "setting": "[2]", "result": 0.30, "unit": "mg/dL"}, {"measurement": "sUA observed, median", "setting": "[2]", "result": 0.30, "unit": "mg/dL"}, {"measurement": "sUA < 6 mg/dL, %", "setting": "[3]", "result": "(100%)"}, {"measurement": "sUA observed, mean", "setting": "[3]", "result": 0.30, "unit": "mg/dL"}, {"measurement": "sUA observed, median", "setting": "[3]", "result": 0.30, "unit": "mg/dL"}, {"measurement": "sUA < 6 mg/dL, %", "setting": "[4]", "result": "(100%)"}, {"measurement": "sUA observed, mean", "setting": "[4]", "result": 0.30, "unit": "mg/dL"}, {"measurement": "sUA observed, median", "setting": "[4]", "result": 0.30, "unit": "mg/dL"}, {"measurement": "sUA < 6 mg/dL, %", "setting": "[5]", "result": "(100%)"}, {"measurement": "sUA observed, mean", "setting": "[5]", "result": 0.30, "unit": "mg/dL"}, {"measurement": "sUA observed, median", "setting": "[5]", "result": 0.30, "unit": "mg/dL"}, {"measurement": "sUA < 6 mg/dL, %", "setting": "Month 6 sUA non-responders, Week 6 - Pre-Infusion, n=2", "result": "(50.0%)"}, {"measurement": "sUA < 6 mg/dL, %", "setting": "[6]", "result": "(100%)"}, {"measurement": "sUA observed, mean", "setting": "[6]", "result": 0.30, "unit": "mg/dL"}, {"measurement": "sUA Change from Baseline, Mean", "setting": "[7]", "result": -0.50, "unit": "mg/dL"}, {"measurement": "sUA change from baseline, median", "setting": "[7]", "result": -0.50, "unit": "mg/dL"}, {"measurement": "sUA < 6 mg/dL, %", "setting": "[8]", "result": "(100%)"}, {"measurement": "sUA observed, median", "setting": "[8]", "result": 0.30, "unit": "mg/dL"}, {"measurement": "sUA < 6 mg/dL, %", "setting": "[9]", "result": "(100%)"}, {"measurement": "sUA observed, mean", "setting": "[9]", "result": 0.30, "unit": "mg/dL"}, {"measurement": "sUA observed, median", "setting": "[9]", "result": 0.30, "unit": "mg/dL"}, {"measurement": "sUA < 6 mg/dL, %", "setting": "[10]", "result": "(100%)"}, {"measurement": "sUA observed, mean", "setting": "[10]", "result": 0.30, "unit": "mg/dL"}, {"measurement": "sUA observed, median", "setting": "[10]", "result": 0.30, "unit": "mg/dL"}, {"measurement": "sUA < 6 mg/dL, %", "setting": "[11]", "result": "(100%)"}, {"measurement": "sUA observed, mean", "setting": "[11]", "result": 0.30, "unit": "mg/dL"}, {"measurement": "sUA observed, median", "setting": "[11]", "result": 0.30, "unit": "mg/dL"}, {"measurement": "sUA < 6 mg/dL, %", "setting": "[12]", "result": "(100%)"}, {"measurement": "sUA observed, median", "setting": "[12]", "result": 0.30, "unit": "mg/dL"}, {"measurement": "sUA < 6 mg/dL, %", "setting": "[13]", "result": "(100%)"}, {"measurement": "sUA observed, mean", "setting": "[13]", "result": 0.30, "unit": "mg/dL"}, {"measurement": "sUA observed, median", "setting": "[13]", "result": 0.30, "unit": "mg/dL"}, {"measurement": "sUA < 6 mg/dL, %", "setting": "[14]", "result": "(100%)"}, {"measurement": "sUA observed, median", "setting": "[14]", "result": 0.30, "unit": "mg/dL"}, {"measurement": "sUA < 6 mg/dL, %", "setting": "[15]", "result": "(100%)"}, {"measurement": "sUA observed, mean", "setting": "[15]", "result": 0.30, "unit": "mg/dL"}, {"measurement": "sUA observed, median", "setting": "[15]", "result": 0.30, "unit": "mg/dL"}, {"measurement": "sUA < 6 mg/dL, %", "setting": "[16]", "result": "(100%)"}, {"measurement": "sUA observed, mean", "setting": "[16]", "result": 0.30, "unit": "mg/dL"}, {"measurement": "sUA observed, median", "setting": "[16]", "result": 0.30, "unit": "mg/dL"}, {"measurement": "sUA < 6 mg/dL, %", "setting": "[17]", "result": "(100%)"}, {"measurement": "sUA observed, mean", "setting": "[17]", "result": 0.30, "unit": "mg/dL"}, {"measurement": "sUA observed, median", "setting": "[17]", "result": 0.30, "unit": "mg/dL"}, {"measurement": "sUA < 6 mg/dL, %", "setting": "[18]", "result": "(100%)"}, {"measurement": "sUA observed, mean", "setting": "[18]", "result": 0.30, "unit": "mg/dL"}, {"measurement": "sUA < 6 mg/dL, %", "setting": "Month 6 sUA responders, Week 8 - Pre-Infusion, n=11", "result": "(100%)"}, {"measurement": "sUA < 6 mg/dL, %", "setting": "[19]", "result": "(100%)"}, {"measurement": "sUA observed, mean", "setting": "[19]", "result": 0.30, "unit": "mg/dL"}, {"measurement": "sUA observed, median", "setting": "[19]", "result": 0.30, "unit": "mg/dL"}, {"measurement": "sUA < 6 mg/dL, %", "setting": "[20]", "result": "(100%)"}, {"measurement": "sUA observed, mean", "setting": "[20]", "result": 0.30, "unit": "mg/dL"}, {"measurement": "sUA < 6 mg/dL, %", "setting": "[21]", "result": "(100%)"}, {"measurement": "sUA observed, mean", "setting": "[21]", "result": 0.30, "unit": "mg/dL"}, {"measurement": "sUA observed, median", "setting": "[21]", "result": 0.30, "unit": "mg/dL"}, {"measurement": "sUA < 6 mg/dL, %", "setting": "[22]", "result": "(100%)"}, {"measurement": "sUA observed, mean", "setting": "[22]", "result": 0.30, "unit": "mg/dL"}, {"measurement": "sUA observed, median", "setting": "[22]", "result": 0.30, "unit": "mg/dL"}, {"measurement": "sUA < 6 mg/dL, %", "setting": "Month 6 sUA responders, Week 14 - Post-Infusion, n=10", "result": "(100%)"}]}
